Test results from article PMC4336329 (PLoS ONE, 2015).
Screen size: about 310,000 compounds; about 2,200 (0.71%) showed an effect of 50% or more. The effect is printed as a negative number. The list shows a part of the results.

target: human ether-à-go-go-related gene (hERG) potassium channel (human, UniProt Q12809); test: primary screen, population patch clamp on CHO cells stably expressing hERG
Sequence (Q12809 whole entry, looked up): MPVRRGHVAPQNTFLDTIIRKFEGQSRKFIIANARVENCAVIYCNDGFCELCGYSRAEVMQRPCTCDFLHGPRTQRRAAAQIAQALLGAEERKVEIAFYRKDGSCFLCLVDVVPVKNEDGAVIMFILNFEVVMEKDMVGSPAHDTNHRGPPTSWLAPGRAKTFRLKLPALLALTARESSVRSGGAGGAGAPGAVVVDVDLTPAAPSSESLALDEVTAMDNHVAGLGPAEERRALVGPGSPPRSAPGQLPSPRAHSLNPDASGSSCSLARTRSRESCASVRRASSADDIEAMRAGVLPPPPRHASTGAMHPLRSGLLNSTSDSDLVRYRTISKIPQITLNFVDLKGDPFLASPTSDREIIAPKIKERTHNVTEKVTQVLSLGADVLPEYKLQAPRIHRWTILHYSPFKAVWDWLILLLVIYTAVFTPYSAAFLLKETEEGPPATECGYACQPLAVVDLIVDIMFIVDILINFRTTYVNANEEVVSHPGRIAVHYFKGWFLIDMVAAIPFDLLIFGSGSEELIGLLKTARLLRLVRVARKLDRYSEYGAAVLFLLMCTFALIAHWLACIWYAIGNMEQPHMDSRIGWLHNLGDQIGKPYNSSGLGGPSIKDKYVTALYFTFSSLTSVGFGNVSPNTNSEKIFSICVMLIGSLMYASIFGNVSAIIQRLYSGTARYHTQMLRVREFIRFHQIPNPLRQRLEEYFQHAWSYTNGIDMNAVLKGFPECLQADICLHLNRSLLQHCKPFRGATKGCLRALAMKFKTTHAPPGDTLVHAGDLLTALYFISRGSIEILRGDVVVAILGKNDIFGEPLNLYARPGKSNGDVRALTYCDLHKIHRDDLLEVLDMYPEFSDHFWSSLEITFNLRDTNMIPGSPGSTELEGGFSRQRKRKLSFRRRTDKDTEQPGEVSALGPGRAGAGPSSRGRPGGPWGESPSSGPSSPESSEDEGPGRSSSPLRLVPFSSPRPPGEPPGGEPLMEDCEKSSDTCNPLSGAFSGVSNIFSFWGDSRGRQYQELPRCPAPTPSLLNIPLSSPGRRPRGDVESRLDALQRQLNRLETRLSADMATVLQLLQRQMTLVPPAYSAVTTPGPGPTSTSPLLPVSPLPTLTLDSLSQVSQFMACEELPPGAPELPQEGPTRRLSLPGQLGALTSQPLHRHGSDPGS

SMILES | hERG current change (%, negative = inhibition) at 1uM [%]
c1ccc(CNc2ncnc3sc4c(c23)CCC4)nc1 | 1.23
COc1ccccc1/C=N/NC(=O)Cn1cnc([N+](=O)[O-])n1 | 4.13
O=S(=O)(Nc1ccccn1)c1cccc(S(=O)(=O)c2ccc(Cl)cc2)c1 | 1.05
O=C(O)C1(c2ccc(Cl)cc2)CCC1 | 6.33
Cc1cc(-c2n[nH]c(=S)n2/N=C/c2ccco2)n[nH]1 | 7.18
NC(=O)C1(N2CCCCC2)CCN(C(=O)CCCn2c(=O)[nH]c3ccsc3c2=O)CC1 | 11.5
CC(=O)C1=C(O)C(=O)N(c2ccc(C)cc2)C1c1ccccn1 (stereo not drawn) | 22.3
CCC(=O)NC(=S)Nc1ccc(NC(=O)c2ccco2)c(OC)c1 | 2.73
C=CCn1c(N2CCCCCC2)nc2c1c(=O)[nH]c(=O)n2C | 9.96
O=C(Nc1ccncc1)Nc1ccc(Cl)cc1 | 4.74
CCc1nnc(NC(=O)CSc2nc(-c3ccccc3)cc(-c3ccc(F)cc3)c2C#N)s1 | 7.84
CC1(C)O[C@H]2CC(=O)OCC23[C@H]2CC[C@@]4(C)[C@H](c5ccoc5)OC(=O)[C@H]5O[C@]54[C@]2(C)C(=O)C[C@@H]13 (stereo partly drawn) | 5.99
Cc1cccc(NC(=O)CN2C(=O)C(C)Oc3ccccc32)n1 (stereo not drawn) | 2.69
NC(=O)c1cc2cc(Br)ccc2oc1=NCc1ccccc1 | 7.09
O=C1CN(C(=O)CNCc2ccccc2)c2ccccc2N1 | 3.99
CCCCN(C(=O)C(C)Oc1ccc(Cl)cc1)c1c(N)n(CCCC)c(=O)[nH]c1=O (stereo not drawn) | 1.24
O=C(CN1CCN(C(=O)c2cccc(S(=O)(=O)N3CCCC3)c2)CC1)Nc1ccccc1Cl | -9.25
C=CCN1C(=O)CN=C1NCc1ccccc1.Cl | 5.45
Cc1ccc(C)c(N(CC(=O)Nc2cc(Cl)ccc2Oc2ccccc2)S(C)(=O)=O)c1 | 5.82
CCC(C)c1ccc2oc(-c3ccc(NC(=O)c4ncn[nH]4)cc3)nc2c1 (stereo not drawn) | 4.45
COc1cccc(S(=O)(=O)NCc2ccc(C(=O)NCc3ccco3)cc2)c1 | 9.85
Cc1ccc(C(=O)Oc2ccc(C(=O)COC(=O)C3CC(=O)N(Cc4ccco4)C3)cc2)cc1 (stereo not drawn) | -2.92

SMILES | hERG current change (%, negative = inhibition) at 1uM [%]
Cc1cccc(NCc2ccccc2O)n1 | 11
CN(/C(=N\S(=O)(=O)c1ccccc1)C(F)(F)F)c1ccccc1 | 6.47
O=C(CSC(=S)N1CCCCC1)N1N=CCC1c1ccccc1 (stereo not drawn) | 14
COc1cc(C2C(C(=O)c3ccc(C)o3)=C(O)C(=O)N2c2cc(C)on2)ccc1OCc1ccccc1 (stereo not drawn) | 10.2
COc1ccccc1C(=O)OCC(=O)Nc1ccccc1OC(F)F | 3.73
O=C(CCC(=O)N/N=C/c1ccc(Br)o1)N/N=C/c1ccc(Br)o1 | 12.2
COc1ccc(NC(=O)Cc2nnc(SCC(=O)NC3CCCCC3C)n2C)cc1 (stereo not drawn) | 11.9
COc1cc(/C=N\N=C2/SC(CC(=O)O)C(=O)N2c2ccc(O)cc2)ccc1O (stereo not drawn) | 14.9
O=C(NCc1ccco1)NCC(F)(F)F | 12.2
O=C(CN1C(=O)C2(OCCCO2)c2ccccc21)NCCc1ccccc1 | 2.73
Cc1nnc(NC(=O)c2ccc(S(=O)(=O)C(F)F)cc2)s1 | -3.95
O=C(c1ccc(Cn2cc(Br)cn2)cc1)N1N=C(C(F)F)CC1(O)C(F)F (stereo not drawn) | 10.3
CCOC(=O)N/N=C/c1ccc(OCCSc2ccc(Cl)cc2)c(OCC)c1 | -3.36
Cc1nc2c(C)cccn2c(=O)c1NC(=O)c1ccco1 | -9
Cc1cc(C(=O)OCC(=O)N(C)c2c(N)n(Cc3ccccc3)c(=O)[nH]c2=O)c(C)n1-c1ccccc1 | 12.1
O=C(CCc1ccccc1)Nc1nc2ccc(S(=O)(=O)N3CCOCC3)cc2s1 | 13.2
CCC(=O)c1ccc(N2CCN(C(=O)c3ccccc3)CC2)c(F)c1 | -23.4
CC(C)(C)NCCOCCOc1ccccc1-c1ccccc1.O=C(O)C(=O)O | -7.71
O=C(c1ccco1)N1CCN(C(=O)c2sccc2-c2ccccc2)CC1 | 3.23
CCOc1ccccc1NC(=O)C1CCCN(S(=O)(=O)c2cccc3cccnc23)C1 (stereo not drawn) | 1.54
Cc1nc(C)c(-c2csc(Nc3ccc(F)cc3)n2)s1 | -6.6
C=CCCN(Cc1ccccc1)S(=O)(=O)c1ccccc1Br | 9.46

SMILES | hERG current change (%, negative = inhibition) at 1uM [%]
CS(=O)(=O)N1CCN(C(=O)c2cc(-c3cccnc3)nc3ccc(Cl)cc23)CC1 | 16.8
Cc1ccc(S(=O)(=O)c2c(C)c(C)c(C)[nH]c2=O)cc1 | 14.7
COc1ccc(/C=N/NC(=O)c2cc(-c3ccccc3OC(C)C)nc3ccccc23)cc1CN1CCOCC1 | 4.46
COc1ccccc1NC(=O)N1CCN(C)CC1 | 7.27
CCOc1ccc(S(=O)(=O)N2CCC(C(=O)NCCN3CCOCC3)CC2)cc1C | 3.21
Cc1ccc(CCN2CC(C(=O)NCCCN3CCC(C)CC3)CC2=O)cc1 (stereo not drawn) | -16
CC(NC(=O)Nc1cccc(F)c1)c1ccc2c(c1)OCO2 (stereo not drawn) | 14.4
N#C/C(=C\c1ccc(-c2ccc(C(=O)O)cc2)o1)C(=O)NCC1CCCO1 (stereo not drawn) | 2.36
CCc1nnc(NC(=O)CSc2nnc(Cc3ccccc3)n2Cc2ccccc2)s1 | 10.5
CC(=O)c1ccc(NC(=O)c2ccc(-n3cncn3)c([N+](=O)[O-])c2)cc1 | 3.62
O=C(CN(Cc1ccccc1)S(=O)(=O)c1ccc(Br)cc1)NCC1CCCO1 (stereo not drawn) | -80.5
CSc1ccc(NC(=O)CSc2nc3[nH]c(=O)cc(O)c3s2)cc1 | 9.33
CCCN(C(=O)c1ccco1)c1nnc(-c2ccccc2C)s1 | -1.18
Cc1cc(Cl)ccc1OCC(=O)Nc1nc(-c2cccnc2)cs1 | 13.3
COc1ccc(C)cc1S(=O)(=O)Nc1cccc(-c2ccc(N3CCCCCC3)nn2)c1 | 12.5
CCOc1ccc(/C=C(\C#N)C(=O)NC2CC2)c(OCC)c1 | 3.5
CC1CCN(CCNC(=O)C2CCCN(c3ncnc4c3nc3n4CCCCC3)C2)CC1 (stereo not drawn) | 15.5
COC(=O)C1=C(N)Oc2cc(C)n(CCc3ccccc3)c(=O)c2C1c1cccnc1 (stereo not drawn) | -1.7
COC(=O)c1ccc(Cn2c(C)cc(C)[n+]2C)o1.[I-] | 13.1
CCC(C)Nc1nc2c(c(=O)n(C)c(=O)n2C)n1Cc1ccc(Cl)cc1 (stereo not drawn) | 13.5
CCCCn1nnc(NC(=O)COc2ccc(Cl)c(C)c2)n1 | 19.6
O=C(NCCN1CCOCC1)C(=O)NCC1OCCN1S(=O)(=O)c1ccc(Br)cc1 (stereo not drawn) | 8.35

SMILES | hERG current change (%, negative = inhibition) at 1uM [%]
O=C(CCCSc1nnc(-c2cccs2)n1CC1CCCO1)c1ccccc1 (stereo not drawn) | -10.9
O=C(NC1CCCC1)C(c1ccsc1)N(C(=O)Cc1cccs1)c1ccc(F)cc1 (stereo not drawn) | 14.9
COc1ccccc1N(CC(O)Cn1ccnc1C)S(=O)(=O)c1ccc(C)cc1.Cl (stereo not drawn) | -10.5
O=C(OC(C(=O)NCC1CCCO1)c1ccccn1)c1cccs1 (stereo not drawn) | 12.4
CCN(CC)CCCN1C(=O)c2oc3ccccc3c(=O)c2C1c1cccnc1 (stereo not drawn) | 5.73
CCCc1nnc(SCC(=O)N2CCOCC2)n1C | 11.4
COc1ccccc1N(CC(=O)NC1CCCCC1)C(=O)CCC(=O)Nc1nccs1 | 6
COCCCNC(=S)NNC(=S)Nc1cccc(Cl)c1 | 18.9
COc1cccc(CN2CCNC(=O)C2CC(=O)NCCOc2cccnc2)c1 (stereo not drawn) | 8.71
O=C(COC(=O)CNC(=O)c1ccc(Cl)cc1Cl)NC1CCCCC1 | 7.92
O=C(c1ccc(F)cc1)N1CCN=C1c1ccccc1 | 9.99
CCN(CC(=O)N1CCCCCC1)S(=O)(=O)c1ccc(Cl)cc1 | 1.78
CCc1cc2c(=O)n(-c3ccc(Br)cc3)cnc2s1 | 5.56
Fc1cccc(-c2cc3nc4c(c(NCc5ccco5)n3n2)CCCC4)c1 | -5.18
O=C(CN1CCCCC1)Nc1ccc(S(=O)(=O)N2CCOCC2)cc1 | 3.46
COc1ccc(C/C(C)=N/NC(=O)c2ccc(Cl)cc2)cc1 | 7.15
COc1ccccc1CNS(=O)(=O)c1c(C)nc2scc(C)n2c1=O | -7.96
Cc1nc2ccc(NC(=O)c3cccnc3)cc2s1.O=C(O)C(=O)O | 5.1
COc1cccc(NC(=O)CN(C)C(=O)CC2Sc3ccccc3NC2=O)c1 (stereo not drawn) | 1.85
COc1ccc(/C=C2/C(=O)N(CC3CCCO3)C(=S)N2C)c(OC)c1 (stereo not drawn) | 0.507
COc1ccc(CCn2c(NN=C3CCCCC3)nc3c2c(=O)[nH]c(=O)n3C)cc1 | 9.97
